Measurements reported in the supplement of paper PMC11417369.
± gives the standard deviation of the averaged measurements. This is one part of the list.

What follows are sequences tested on PfAP2-G AP2 domain (GST-tagged) (assay: gcPBM binding intensity (ln(normalized median fluorescence intensity)); higher = stronger DNA binding).
Procedure, shortened: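 An Agilent 4 × 180k array carrying primer-extended double-stranded 36-bp intergenic genomic probes and negative controls received GST-tagged P. falciparum DNA-binding domains expressed in E. coli, about 25 μg on average, for 1 h. The binding buffer contained 1× PBS, 1% milk, 0.2 mg/ml BSA, 0.5% salmon testes DNA and 0.03% Triton X-100. Binding intensity is the top Masliner-normalised natural-log median intensity across replicate spots of either probe orientation, read after Alexa488 anti-GST antibody staining and a 488 nm scan.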

| Sequence | gcPBM binding intensity (ln) |
| --- | --- |
| TACAAATATATAAAATGTACATATATATACATATTA [XGTACX_site3029] | 10.9 ± 0.55 |
| TTTATTTTCATATGAACACACATATAAATATTATAA [CACACA_site7172] | 10.1 ± 0.2 |
| ATATTTTATATGTTCACACATACATAAACATATTTT [CACACA_site4948] | 10.1 |
| GAATAAAAATTTTAATGTACATATTTTTTATTTATA [XGTACX_site8935] | 11.2 ± 0.65 |
| GGTAGTTATTATCTCCGTACTTATAAAGAAAAAAGG [XGTACX_site4674] | 10.9 ± 0.63 |
| ATATGCTAATAAAATTGTACATATTATTCATATTGT [XGTACX_site2344] | 10.9 ± 0.49 |
| ATTTTTCCTCTCTTTTGTACTTATATATATATATAT [XGTACX_site7405] | 11.3 ± 0.99 |
| ATAAATACTTTTTGGTGTACACTTTTAAATGAAAAA [XGTACX_site3042] | 11.8 ± 1 |
| CAATTAAAGAAAAACAGTACGTGTATCAAACATCCT [XGTACX_site8990] | 11 ± 0.37 |
| ATATATTTTTAGCACAGTACAATATAATTAAATATA [XGTACX_site6779] | 10.6 ± 0.4 |
| TGACTACATAAAATGACACACACAAACTTTAAAATT [CACACA_site9151] | 9.98 ± 0.099 |
| TAAATGGATTGTTCAGGTACACATAAATATGATATT [XGTACX_site6963] | 11.2 ± 0.78 |
| AAAAGTTGTTTATAATGTACAAGGTAGAAAAAAACA [XGTACX_site1454] | 10.9 ± 0.29 |
| AACAAAATAAAAATAACACACACATTTATATATATA [CACACA_site8313] | 9.78 ± 0.2 |
| ATTATATTATTTTAAAGTACACACATATATTAATAT [XGTACX_site4769] | 11.6 ± 0.91 |
| ATATTATATAATAATGCATGCACCTTATTTTCATTT [TGCATGCA_site405] | 9.94 ± 0.042 |
| TTTTTTATTTTGTGCACACACATAAAAATATAAATA [CACACA_site6497] | 10.6 ± 0.49 |
| TACTCTTTCCAGAAGTGTACATAGAAATAATTACAT [XGTACX_site2668] | 11.2 ± 0.71 |
| AATGTATTAAAATTACGTACATATGCACATTTTATA [XGTACX_site5046] | 11.3 ± 0.83 |
| CAAGCACAGAAACACACACACACACCGACACAGACA [CACACA_site4359] | 10.3 ± 0.35 |
| AAAAAAAAAAAAAAAAGTACTAAATGTAAAAGAATA [XGTACX_site2164] | 11.2 ± 0.49 |
| TAAAAATAATATATTTGTACATATGTGTATACATAA [XGTACX_site741] | 10.7 ± 0.38 |
| TATAAATACATACATACACACATATATATATATATT [CACACA_site6116] | 10.2 ± 0.17 |

| Sequence | gcPBM binding intensity (ln) |
| --- | --- |
| TCCTAAAAAAAAAAAAAAAATGAAAAAGGAAAAAAA [CACACA_negctrl_site1646] | 9.61 ± 0.028 |
| AGCATTTCTTTTACATGTACATAATATTTTTAATAA [XGTACX_site1968] | 11.3 ± 0.74 |
| TAGTATTATTATTATGCACACAAAAATATTTATACA [CACACA_site9219] | 10.2 ± 0.23 |
| TTTTTTTTTTTTTTTTGTACATAATTATATATTTAC [XGTACX_site7540] | 10.9 ± 1 |
| AAGAAAAAACAAACATGTACACATAATTTAGTTTTT [XGTACX_site3121] | 11.4 ± 0.89 |
| AAAAAAAAAAAAAAAAAAATAAAAAATAAATAAATA [CACACA_negctrl_site1498] | 10.3 ± 0.54 |
| TATATATGTATGTATGCATGCCCTTTTTTAAAAAAA [TGCATGCA_site434] | 10.3 ± 0.24 |
| AAGAAAAATATATATATAAATAAATAAATATATATA [TGCATGCA_negctrl_site330] | 9.365 ± 0.049 |
| TACAAATACATTACATGTACATATTTAATAATATCA [XGTACX_site2075] | 11.2 ± 0.84 |
| TTTTCAATTAATAATACACACATGTATATATTATTA [CACACA_site3311] | 9.98 ± 0.2 |
| TATATTATTATGCATAGTACGTACTGTGATAAGAAT [XGTACX_site2956] | 11.4 ± 0.8 |
| CATTTTAAAACAGACACACACCAAAAAAAAAAAAAA [CACACA_site6259] | 10.1 ± 0.52 |
| TTTTTCTGTCGTTGTTGTACTTGAGGAGTAACAATT [XGTACX_site7852] | 11.3 ± 0.81 |
| TTTGAAAAGTATGAGGTGCAAAAAATGTAATGAAAT | 10.4 ± 0.23 |
| TTTTTTTTTTTTTTGGTGCGATCTTTTAAATGATCC | 10 ± 0.57 |
| TTTTATAATTTAAAATAATGAAACTTCTTTCTATTT [TGCATGCA_negctrl_site324] | 9.5 ± 0.24 |
| GTATATAAGTATATATGTACATATATTTTATATATA [XGTACX_site4745] | 11.1 ± 0.49 |
| AATACGAAGGATAAGAGTACTAATTAAATAAATGAA [XGTACX_site523] | 11 ± 0.46 |
| ATATAAGAATAAATAGTGCAAAATAAATGATTATTT | 9.76 ± 0.22 |
| TTTCTGATATTTTTATATTTTCTTATATATATATAT [GTGCAC_negctrl_site652] | 9.99 ± 0.26 |
| TTTAAATTTTAATATGCACACAAAATGTTATATTAA [CACACA_site8015] | 9.95 ± 0.19 |
| TATTATATCGAACACTGTACTTTTTTATTCAACCTA [XGTACX_site493] | 11.6 ± 0.95 |
| GCCTTTTTATTTAGAACACACACAAAAAAAAAAAAA [CACACA_site8520] | 10.2 ± 0.54 |

| Sequence | gcPBM binding intensity (ln) |
| --- | --- |
| AATAATAAATATATATATATATATATATATATATTT [CACACA_negctrl_site786] | 9.56 ± 0.19 |
| TAATAAACCAAACTAAACAATATATCAAAAAGCACA [CACACA_negctrl_site269] | 10.03 ± 0.035 |
| ATATATATATATATAGTGCAAATATCTTCTTTATAA | 10.2 ± 0.72 |
| CTTTCTTATTTGAACGCATGCATTTGTACCTTTTAT [TGCATGCA_site671] | 10.8 ± 0.6 |
| TATATACAAAATGCCTGTACATATATATTTATTTAT [XGTACX_site761] | 10.9 ± 0.57 |
| CATGCAAAAAATTCCACACACACACCCACATATAAA [CACACA_site1229] | 10.5 ± 0.49 |
| AATAATATCATTTAGACACACACTCTTACAATATGT [CACACA_site8832] | 10.035 ± 0.007 |
| AATTATTTATCGGAATGTACATAAAAACATATGTAT [XGTACX_site7443] | 11.1 ± 0.58 |
| ACCTACATAACATACACACGCATATATATAATTTTA [CACACA_site2847] | 10.2 ± 0.16 |
| TATTTAATAAAGAAATAAAAATAAAGAAAAAAAAAA [CACACA_negctrl_site74] | 9.82 ± 0.13 |
| TAAAATGTAATCTGAACACACATATTTTTTTAATAT [CACACA_site1768] | 9.79 ± 0.12 |
| TATAAATTTGTTGTTGCATGCAGTATACCAAAAAAA [TGCATGCA_site445] | 10.3 ± 0.38 |
| ATTTGTAATTTATATTCACACATTCAAAAAAATGAG [CACACA_site6057] | 9.91 ± 0.13 |
| AAAAATATAATATAATGTACACAAAAAAAAAAAAAT [XGTACX_site4914] | 11.6 ± 0.91 |
| AATAGCCCATATGGAATACACACTGAAAATAAAAAA [CACACA_site3373] | 10.3 ± 0.26 |
| CCATAAAAAGGATACACACACACACCGACATATATA [CACACA_site4653] | 10.3 ± 0.22 |
| TTCATTTAGCAAGAATGTACTTATATATATATATAT [XGTACX_site3401] | 11.1 ± 0.92 |
| CAAAAAAATGTGAAGGCATGCAAATATGTAAAATAA [TGCATGCA_site921] | 10.06 ± 0.014 |
| ATAAAGCCATACAATACACACATTTTACATGGGGGT [CACACA_site9072] | 11.2 ± 0.74 |
| GTATTATATTTCAACTGTACGTAAAACTATTAAAAT [XGTACX_site3679] | 11.7 ± 1.1 |
| CAACATAAAAATTAAGCATGCAATAGACTTGTGTTG [TGCATGCA_site417] | 9.965 ± 0.035 |
| TAATAAAATAATATCACACATATTTATATATATTAT [CACACA_site5814] | 9.59 ± 0.028 |
| GTTTAAAAAAATTATCAACTTTAAAAAGGTAACATT [XGTACX_negctrl_site203] | 9.98 ± 0.34 |

| Sequence | gcPBM binding intensity (ln) |
| --- | --- |
| ATATAAAAATTAAAATGTACATATCTTATTATAATA [XGTACX_site983] | 11.1 ± 0.61 |
| GTAGTAAATAGGAGGATGCATATGGCACACATTATA [TGCATGCA_negctrl_site59] | 10.34 ± 0.092 |
| AACTAATATAATAATACATGCACATAAAAATATATA [TGCATGCA_site606] | 9.915 ± 0.007 |
| AAAGGAATATAATGATGTACACAAATATATATACAT [XGTACX_site5347] | 11.4 ± 0.61 |
| TGAATAATATACATACGTACATACATATATATAATA [XGTACX_site1302] | 11.3 ± 0.98 |
| ATAAAAAGGAAACACACACACACACCCATATATATA [CACACA_site904] | 10.1 ± 0.11 |
| TTTTTTTTTTTTTTTTTTTTCATTCAATTATATTTA [CACACA_negctrl_site712] | 9.4 ± 0.54 |
| TTATCACATAAACGATGTACGTACTAGGTTTTTTTT [XGTACX_site2147] | 11.5 ± 0.79 |
| CACGCATACGGACACACACACACACCGATATATATA [CACACA_site4521] | 11.3 ± 0.79 |
| TATTTTTTTATTTGTGCATGTCATATTTAAACATAA [TGCATGCA_site1006] | 10.05 ± 0.085 |
| ATATTTTGTTTTATAGTGCACATGGGCATATATTAA [GTGCAC_site9435] | 10.5 ± 0.35 |
| ATATATATTATCATTGTGCACTTATTTATATACCTT | 10.5 ± 0.28 |
| GGCAACAATGTAGATTGTACATATGAATTTTACAAT [XGTACX_site5655] | 10.8 ± 0.57 |
| AAATTTCAATAATCTACACACATAAAAAAACAAAAG [CACACA_site1702] | 10.11 ± 0.071 |
| TTTACTTTTTTTTCTTGTACTCATACATACTATCAT [XGTACX_site4919] | 11.4 ± 0.81 |
| TTTAATAAATAAATAAATAAAATATATTAAAAACCA [CACACA_negctrl_site80] | 9.695 ± 0.064 |
| ATAATATGAAAACACACACACACACTAATAAAAAAA [CACACA_site8617] | 10.1 ± 0.12 |
| ATATTTTATTATTGTTGTACTTTTTTTTTTTGATTG [XGTACX_site4091] | 11.5 ± 0.95 |
| TAAGTATATAAAATTACACACTATTTTTTTTCAAGT [CACACA_site1792] | 9.945 ± 0.064 |
| TAGAAAAAAGATAGCACACACGGCCCAATATATATA [CACACA_site5354] | 10.1 ± 0.16 |
